Test results: PubChem BioAssay AID686970 (National Center for Advancing Translational Sciences (NCATS), 2013)
Out of some 360,000 compounds screened, about 6,000 (1.7%) were called active. The shares of active, inactive and inconclusive entries below differ from those in the screen. Calls follow the shape of the dose curve; as a rule, active = well fitted cell-killing curve with a large enough effect; inconclusive = small, poorly fitted or top-dose-only effect, or effect the other way; inactive = flat fitted curve, though single readings scatter. Potencies of inconclusive entries are left out as doubtful fits.

Assay: qHTS for induction of synthetic lethality in tumor cells producing 2HG: qHTS for the HT-1080-NT fibrosarcoma cell line;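 also: NT is the 2HG producing partner of a matched IDH1 knockdown line; nearly all actives have a fitted effect of over 55% in size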;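 as to activity, negative = less viability: 0% = DMSO-treated cells and -100% = media-only wells without cells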
Details: HT-1080-NT fibrosarcoma viability, CellTiter-Glo ATP luminescence, 48 h; activity, negative = less viability: at 46.1 µM (top of the series) unless noted
Procedure, shortened: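 Viability by CellTiter-Glo luminescence after 48 h compound exposure at 37C of HT-1080-NT cells (750/well, RPMI, 5% FBS). % activity scaled between DMSO wells and medium-only wells, then curve-fitted and categorized by curve class.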
Potency is read from the fitted curve at half-maximal effect; tags tell the direction and shape of the fitted curve.

| Compound | activity, negative = less viability | Potency |
| --- | --- | --- |
| O=C(Nc1ncccc1O)c1ccc2c(c1)OCCO2 | inactive: -8.64% |  |
| O=C1C=C(C#Cc2ccccc2)C[C@@H](c2ccc(F)cc2)C1 |  | inconclusive [cytotoxic, single point] |
| Cc1c(-c2nc(N)nc(Nc3ccccc3)n2)oc2ccccc12 |  | inconclusive [cytotoxic, single point] |
| Cc1ccc(-c2csc(NC(=O)c3ccc(C)o3)n2)cc1 | inactive: 13.2% |  |
| CC1(C(=O)N2CCCCC2)CCN1C(=O)C1(c2ccccc2)CC1 (stereo unspecified) |  | inconclusive [rising, single point] |
| CC(=O)OCC1CCCC2=C(C)C(=O)CCC21COC(C)=O (stereo unspecified) | inactive: 5.64% |  |
| CCOC(=O)c1cnc(SC2CCc3ccccc3C2=O)nc1N (stereo unspecified) | inactive: -7.68% |  |
| COCCNC(=O)C1(C)CCCN(C(=O)c2ccc3ccccc3c2)C1 (stereo unspecified) |  | inconclusive [rising, single point] |
| CCn1ncc([N+](=O)[O-])c1C(=O)N1CCCC1 | inactive: -0.289% |  |
| CCCCOC(=O)COc1ccc(Cl)cc1Cl | inconclusive: 30.3% |  |
| Cn1c(-c2ccc3ccccc3n2)[n+](C)c2ccccc21 |  | inconclusive [cytotoxic, full curve, poor fit] |
| CN(C)n1cnc2ccsc2c1=O | inactive: 19% |  |
| CC(C)[C@H](NC(=O)N1c2ccccc2NC(=O)[C@@H]1C(C)C)C(=O)N[C@@H](Cc1c[nH]c2ccccc12)C(=O)O | inactive: 11% |  |
| Cc1ccc(S(=O)(=O)N2CCN(CC(=O)NCC3(N4CCOCC4)CCCCC3)CC2)cc1 | inactive: 2.2% |  |
| N=C1C(c2ccccc2)=C(O)CN1CCCO | inactive: 2.11% |  |
| CCCS(=O)(=O)NC(=O)C1(C)CCN(C(=O)c2ccc(C(F)(F)F)nc2C)C1 (stereo unspecified) |  | inconclusive [rising, single point] |
| CC(C)(C)OC(=O)NCCc1nnc(S(=O)(=O)Cc2ccc(Cl)cc2Cl)o1 |  | active: 18.4 µM |
| CC(=O)c1cccc(-c2ccnc3c2CC(C(=O)NCCC(F)(F)F)O3)c1 (stereo unspecified) |  | inconclusive [cytotoxic, single point] |
| CC(C)[C@H](NC(=O)OC(C)(C)C)c1cc(C(=O)NC2CC2)c(N)s1 | inactive: -2.36% |  |
| COc1ccc(/C=N/NC(=O)c2cc(C(C)(C)C)[nH]n2)cc1COc1ccc(F)cc1F |  | inconclusive [cytotoxic, single point] |
| CCCN1C=CC(=C2C(=O)c3ccccc3C2=O)C=C1 |  | active: 5.62 µM |
| Cc1ccc(S(=O)(=O)Nc2cc(C(=O)NCCN3CCCC3)ccc2N2CCCCC2)cc1 |  | inconclusive [cytotoxic, single point] |
| CCOc1ccc(N2C(=O)C3=C(C(c4ccc(Cl)cc4)=NCCN3)C2c2cccnc2)cc1 (stereo unspecified) |  | inconclusive [cytotoxic, single point] |

| Compound | activity, negative = less viability | Potency |
| --- | --- | --- |
| Cc1c(CN2CCC(C(=O)Nc3cccc(-c4cccc(Cl)c4)c3)CC2)cnn1C |  | inconclusive [cytotoxic, single point] |
| COc1ccc(CN(C)CC(=O)NC(=O)NCc2ccccc2)c(OC)c1 | inactive: 0.0458% |  |
| O=C(COC(=O)Cc1ccccc1[N+](=O)[O-])NCc1ccccc1Cl | inactive: 4.32% |  |
| COc1cnc(-c2ccccn2)nc1Oc1ccc(C(C)(C)C)cc1 |  | inconclusive [cytotoxic, single point] |
| O=C1c2ccccc2C2=Nc3ccccc3SC(c3ccc(Cl)cc3)C12 (stereo unspecified) |  | inconclusive [cytotoxic, single point] |
| CCCn1ccnc1SCC(=O)Nc1c(C)n(C)n(-c2ccccc2)c1=O | inactive: 4.17% |  |
| CC1CCCN(Cc2c(O)ccc3c(=O)c(-c4nc5ccccc5s4)c(N)oc23)C1 (stereo unspecified) |  | inconclusive [cytotoxic, partial curve] |
| O=C1N=C(N2CCCC2)S/C1=C\C=C\c1ccccc1 | inactive: -0.482% |  |
| COc1ccccc1CNc1ncnc2c1cnn2-c1ccccc1 |  | inconclusive [cytotoxic, single point] |
| CCCCCCCCN1C(=O)[C@H](CC(=O)NCc2cccc(C(F)(F)F)c2)C[C@@]2(C(=O)OC)CC(C)(C)CC=C12 |  | inconclusive [cytotoxic, single point] |
| O=C(N/N=C/c1cc([N+](=O)[O-])ccc1O)c1cc(-c2ccccc2)nc2ccccc12 |  | inconclusive [cytotoxic, full curve] |
| Cc1ccc(N2CC(C(=O)N/N=C/c3c(F)cccc3Cl)CC2=O)cc1 (stereo unspecified) | inactive: -0.536% |  |
| COc1cc(CNc2ccccc2)c([N+](=O)[O-])cc1OC | inactive: 5.52% |  |
| COc1cccc(C(=O)C2CCCN(Cc3cccn3-c3ccccn3)C2)c1 (stereo unspecified) |  | inconclusive [cytotoxic, partial curve] |
| COc1ccc(-c2oc3ncnc(NCCCN(C)C)c3c2-c2ccc(OC)cc2)cc1 |  | inconclusive [cytotoxic, single point] |
| CCc1cccc(CC)c1-n1c(SCC(=O)N2CCc3ccccc3C2)nnc1-c1cccnc1 |  | inconclusive [cytotoxic, single point] |
| Cc1nc2ccccc2n1CC(=O)NC1CCCCCC1 |  | inconclusive [cytotoxic, single point] |
| CC(=O)c1ccc(-c2ccc([C@H]3[C@@H]4C=CCC[C@@]4(C)C(=O)N3Cc3ccccc3)c(F)c2)cc1 |  | inconclusive [cytotoxic, single point] |
| CC(NCc1ccc(OCc2ccc(Cl)cc2)cc1)C(O)c1ccccc1 (stereo unspecified) |  | active: 23.1 µM |
| O=C(Nc1ccc(OC(F)F)c(Cl)c1)c1cccc(OC(F)F)c1 |  | inconclusive [cytotoxic, single point] |
| CCOc1cc(/C=N/NC(=O)CN(CCc2ccccc2)S(=O)(=O)c2ccc(NC(C)=O)cc2)ccc1O |  | inconclusive [cytotoxic, single point] |
| COc1ccc(NC(=O)C2CCC(=O)N2)cc1 (stereo unspecified) |  | inconclusive [cytotoxic, partial curve] |
| CCn1c(-c2nn(C)cc2Cl)n[nH]c1=S |  | inconclusive [rising, single point] |
